Data published in PubChem BioAssay AID652104 (National Center for Advancing Translational Sciences (NCATS), 2013).
Among all 410,000 compounds or so, about 7,200 (1.8%) were called active. This list was built around the results that the source calls inconclusive (neither active nor inactive); the mix of calls is not that of the screen. The call rests on the fitted dose curve; in most records, active means well fitted activation curve with a large enough effect; inconclusive means small, poorly fitted or top-dose-only effect, or another doubt; inactive means no such curve, though single readings can be large or run the other way. Potencies beside an inconclusive call are fits to weak or partial responses and may not hold up.

assay: qHTS of TDP-43 Inhibitors; conditions: TDP-43 expressing yeast growth rescue, BacTiter-Glo, 24 h; series mostly up to 46.1 µM; further: nearly all actives have a fitted effect of over 50% in size
Summary of the method: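 In this qHTS, compounds that restore growth of yeast expressing TDP-43 appear as activators. Cells (OD600=0.02, galactose medium, raffinose-pregrown) are incubated with compound 24 hr at 30 deg C and growth is quantified by BacTiter-Glo.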
Potency means the concentration at half of the fitted maximal effect; tags describe the fitted curve by direction and shape.

Potency, active:
O=c1c2c3c(sc2ncn1-n1cccc1)CCCCC3 12.6 µM
Nc1cc([N+](=O)[O-])ccc1Nc1ccccc1 14.1 µM
COc1ccc(Oc2nnnn2-c2ccccc2)cc1 11.2 µM

Potency, inactive:
COc1ccc(OC)c(CNc2ncnc3c2nc2n3CCCC2)c1
COc1cccc(CN2C(=NC(=O)C3CC3)SC3CS(=O)(=O)CC32)c1 (stereo not given)
CCOc1ccc(/C=C/C(=O)N(CC)CC(=O)NCc2cccs2)cc1OC
Cc1cccc(-n2ncc3c(NCCCN4CCCC4=O)ncnc32)c1

Potency, inconclusive:
Cc1cccc(C)c1OCc1cc(C(=O)NCc2cn(C)nc2C)no1 3.98 µM [activator, partial curve]
Cc1ccc(C2=CC(c3ccccc3)n3ncnc3N2)c(C)c1 (stereo not given) 7.94 µM [activator, partial curve]
Cc1ccc(S(=O)(=O)Nc2ccccc2N=Cc2c(F)c(F)c(F)c(F)c2F)cc1 12.6 µM [activator, partial curve]
CCOC(=O)c1ccc(-c2c(-c3cc(OC)c(OC)c(OC)c3)noc2C)cc1F 11.2 µM [activator, partial curve]
C/C(CCC1CC(C)OC1=O)=N/Nc1nc(-c2ccccc2)cs1 (stereo not given) 12.6 µM [activator, single point]
CCOC(=O)C1CCN(C(=O)/C=C/c2ccc3c(c2)OCO3)CC1 11.2 µM [activator, partial curve]
C=CCNC(=S)N1CCN(c2ccc([N+](=O)[O-])cc2)CC1 15.8 µM [activator, single point]
Cn1c(NC(=O)c2cccnc2)nc2ccccc21 6.31 µM [activator, full curve, poor fit]
COC(=O)CSc1nnc(CNc2ccc(Cl)cc2)n1Cc1ccccc1 15.8 µM [activator, single point]
Cc1cccc(NC(=O)c2ccc(Cl)c(S(=O)(=O)N3CCc4ccccc43)c2)n1 35.5 µM [activator, single point]
CCCNc1ncnc2c1c(-c1ccccc1)cn2-c1ccc(OCC)cc1 25.1 µM [activator, single point]
COc1cccc(Nc2ncnc3sc(C)cc23)c1 17.8 µM [activator, partial curve]
Cc1ccc(-c2cnn3c(N4CCOCC4)cc(C)nc23)cc1 7.94 µM [activator, partial curve]
